Test results reported in PubChem BioAssay AID1963576 (National Center for Advancing Translational Sciences (NCATS), 2024).
Screen size: about 46,000 compounds; about 60 (0.1%) were called active. Inconclusive results (about 3%) are left out. The call rests on the fitted dose curve; in most records, active means well fitted inhibition curve with a large enough effect; inconclusive means small, poorly fitted or top-dose-only effect; inactive means no such curve, though single readings can be large or run the other way. The list shows a part of the results.

experiment: Primary qHTS assay for Inhibitors of ovarian cancer metastasis using an organotypic tumor microenvironment (TME) model.; further: nearly all actives have a fitted effect of over 65% in size;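 on activity change, negative = inhibition: plate controls were DMSO wells for no effect and tomatine positive control wells for full effect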; details: SKOV3ip1-GFP adhesion/invasion on 3D omental model, fluorescence; series mostly up to 45.8 µM; activity change, negative = inhibition: at the top concentration
How it was run: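 qHTS, 4-pt dose (0.36-46 umol/L); SKOV3ip1-GFP, 1,200 cells/well, no FBS; primary omental fibroblast/mesothelial co-culture 48 h pre-grown; 2 h RT + 16 h 37 C; PBS wash, 4% PFA; GFP count 488/509 nm.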

Activity change, negative = inhibition, inactive:
CCOC(=O)c1ccc(NC(=O)C2CC(=O)N(c3ccc(C(C)C)cc3)C2)cc1 (stereo unspecified) 4.93%, COc1ccc(C(=O)Nc2ccc3oc(-c4ccc(OC)cc4)nc3c2)cc1 -27%, CCc1cccc(NC(c2nnc(-c3ccccc3)o2)c2ccc(F)cc2Cl)c1 (stereo unspecified) 4.7%, CCCC(=O)Nc1cc(-c2nc3cccnc3s2)ccc1C 13.6%, COc1ccc2c(c1)Cc1sc(NC(=O)c3cccc(F)c3)nc1-2 22.9%, CC(NC(=O)c1cccc(NC(=O)c2nsc3ccccc23)c1)c1ccccc1 (stereo unspecified) -0.355%, CCN1c2ccccc2-c2nc(SCC(=O)Nc3c(C)cc(C)cc3C)ncc2S1(=O)=O -26.5%, COc1cccc(-n2c(-c3ccco3)nc3c(cnn3-c3ccc(C)cc3)c2=O)c1 0.974%, Cc1ccc(C(=O)CSc2nnc(-c3ccccc3)n2-c2ccccc2)cc1 8.01%, CCOc1ccc(C(=O)c2cn(Cc3ccc(OC)cc3)c3cc(OC)c(OC)cc3c2=O)cc1 0.355%, CCOc1ccc(NS(=O)(=O)c2ccc3[nH]cc(C(=O)NC4CCCC4)c(=O)c3c2)cc1 5.37%, CC(=O)Nc1ccc(S(=O)(=O)NC2(C(F)(F)F)C(=O)Nc3c2c(=O)[nH]c(=O)n3-c2ccc(C)c(C)c2)cc1 (stereo unspecified) 0.709%, Cc1noc(Cn2c(=O)c3ccccc3n(CC(=O)Nc3ccc(Cl)cc3)c2=O)n1 -2.04%, CC1=C(C(=O)NCc2ccc(C)cc2)C2(CCCCC2)OC1=O 4.04%, Cc1ccc2cccc(NC(=O)C(C)Oc3ccc(C)c(C)c3)c2n1 (stereo unspecified) 0.756%, CCOc1ccc(NC(=O)CSc2ncc3c(n2)-c2cc(Cl)ccc2N(C)S3(=O)=O)cc1 -6.01%, O=C(O)c1cc(O)c2c(c1)C(=O)c1cccc(O)c1C2=O 12.5% [at 92.2 µM], COc1ccc(NC(=O)CCNS(=O)(=O)c2cccc3nonc23)c(OC)c1 -5.05%, CC(=O)N1CCCc2cc(S(=O)(=O)N3CCCC(C(=O)Nc4cccc(F)c4)C3)ccc21 (stereo unspecified) 11.9%, O=c1c2cc3c(cc2n(Cc2cccc(Cl)c2)c(=O)n1Cc1nc(-c2ccccc2)no1)OCO3 15.8%, COc1ccc(N2CCN(C(=O)c3ccc(Nc4nc5ccccc5n5nnnc45)cc3)CC2)cc1 -12.5%, O=C(Nc1ncc(Cc2ccc(Cl)cc2)s1)c1ccc2c(c1)CC(c1ccccc1)OC2=O (stereo unspecified) 1.51%, NC(=NCc1ccccc1)NC(=O)c1nc(Cl)c(N)nc1N 10.6%, COc1cccc(C2CC(=O)Nc3c2c(=O)nc2c(C)cccn32)c1 (stereo unspecified) 8.01%, CCCn1c2ccccc2c2cnn(CC(=O)NCCc3ccc(OCC)c(OCC)c3)c(=O)c21 -8.69%, Cc1ccc(NC(=O)CCNS(=O)(=O)c2ccc3c(c2)CCN3C(=O)C2CC2)c(Cl)c1 5.14%, COc1cccc(CNC(=O)CSc2nc3ccccc3nc2Cc2ccc(C)cc2)c1OC -0.153%, CCCCNC(=O)CCn1c(=O)c2cccn2c2ccc(F)cc21 20.4%, COc1ccccc1N(CC(=O)N1CCC(C)CC1)S(=O)(=O)c1ccc(C)cc1 84.1%, CCN(C(=O)Cn1nc(Cc2ccncc2)c2ccccc2c1=O)c1cccc(Cl)c1 2.13%, COc1ccc(CCNC(=O)CN2C(=O)COc3ccc(C)cc32)cc1OC -2.12%, CCOC(=O)c1cc(-c2ccc(OC)c(S(=O)(=O)NC3CCCCC3)c2)on1 -17.8%, CCCCN(CC)CCCNC(=O)CN1C(=O)CSc2ccc(S(=O)(=O)N3CCOCC3)cc21 -26.9%, CCn1nc(C)c(CCN(C)C(=O)Nc2ccc(C)c(Cl)c2)c1C 2.35%, Cc1cccc(Nc2nn3c(=O)c4cc5c(cc4nc3s2)OCO5)c1 -0.22%, O=C(Nc1ccc2nc3n(c(=O)c2c1)CCCCC3)C(=O)Nc1ccccc1F -1.44%, CCc1ccc(Cn2c(CNS(=O)(=O)c3ccc([N+](=O)[O-])cc3)nc3cccnc32)cc1 -5.85%, CCOC(=O)Cn1c(=O)n(CC2CCCO2)c2nc(-c3ccc(OCC)cc3)nc(C(N)=O)c21 (stereo unspecified) 1.16%, CCN(CC)CCNC(=O)CN1C(=O)COc2ccc(S(=O)(=O)N3CCOCC3)cc21 9.85%, Cc1cc(Nc2cccc(Cl)c2)nc2ccc(NC(=O)Cc3ccc(Cl)cc3)cc12 -6.36%, CCOc1ccccc1NC(=O)Cn1c(=O)n(Cc2ccccc2)c(=O)c2c1c1cc(C)ccc1n2C -15.9%, COc1ccc(CCNC(=O)c2ccc3c(c2)CCN3S(=O)(=O)c2ccccc2)cc1OC -4.03%, CCCCOC(=O)c1ccc(OC(=O)c2sc3ncn(Cc4ccccc4Cl)c(=O)c3c2C)cc1 -0.457%, COc1ccccc1OCc1nnc(-c2ccccc2)o1 -9.89%, COc1cccc(CNC(=O)Cc2csc3nc(-c4ccccc4)cn23)c1 -0.573%, CCOc1ccc(CNCCCSc2nnnn2C)cc1OC -7.38%, O=C(CSc1nc(=O)n(Cc2ccco2)c2c1CCC2)Nc1cccc(F)c1 0.11%, Cc1ccc(Cl)cc1Nc1sc(C(=O)c2ccc(F)cc2)c(N)c1S(C)(=O)=O -7.81%, N#Cc1c(O)c2c(-c3ccc(-c4ccccc4O)cc3)csc2[nH]c1=O -12.1%, COc1ccccc1N1CCN(C(c2ccc(Cl)cc2)c2nnc(-c3cccc(F)c3)o2)CC1 (stereo unspecified) 4.13%, COc1ccc(CC(=O)Nc2sc3c(c2C(=O)Nc2cccc(C)c2)CCCCC3)cc1 -0.957%, CCCSc1oc(-c2ccco2)nc1S(=O)(=O)c1ccc(Cl)cc1 -5.73%, Cc1ccc2c(=O)cc(C(=O)Nc3ccc(S(=O)(=O)N4CCCCC4)cc3)oc2c1 -3.05%, CCOc1ccc(C(=O)Nc2nc(-c3ccc(Br)cc3)ns2)cc1 6.33%, COc1ccc(NC(=O)Cn2c(SCc3ccc(F)cc3)nc3cccnc32)c(OC)c1 1%, COc1cccc(N2CCN(C(=O)c3cc4c(=O)n(Cc5cccnc5)ccc4nc3C)CC2)c1 5.68%, CCC(C)n1c(=N)c(C(=O)NC2CCCC2)cc2c(=O)n3ccccc3nc21 (stereo unspecified) -12.4%, Cc1ccc(NC(=O)CSc2cn(CC(=O)N3CCOCC3)c3ccccc23)cc1Cl 4.66%, CCOc1ccc(CNC(=O)Nc2ccc3c(c2)N(C)C(=O)c2ccccc2S3)cc1 5.39%, COc1ccc(NC(=O)C2CCCN(c3cnccn3)C2)c(OC)c1 (stereo unspecified) 5.37%, CCOC(=O)/C(C#N)=C/c1ccc(-c2ccccc2)o1 -11.3%, Cc1ccc(-n2ncc3c(NC4CCCC4)ncnc32)cc1 0.487%, NS(=O)(=O)OC[C@@H]1C[C@@H](n2ccc3c(N[C@H]4CCc5ccccc54)ncnc32)C[C@H]1O -6.53%, O=S(=O)(c1ccccc1)c1nnn2c1nc(N1CCN(c3ccccc3)CC1)c1cc(Cl)ccc12 2.39%, Cc1ccc2c(c1)C(c1ccccc1)N(C(=O)c1ccc(S(=O)(=O)N3CCCC3)cc1)CC(=O)N2 (stereo unspecified) -0.843%, Cn1c(=O)c2nc3ccc(NC(=O)C(F)(F)F)cc3nc2n(C)c1=O 3.95%, COc1ccc2sc(N(Cc3cccnc3)C(=O)c3cccs3)nc2c1 7.18%, N=C(N)c1ccc(OCCCCCOc2ccc(C(=N)N)cc2)cc1 15.1%, Cc1nc(SCc2ccccc2Cl)c(C#N)c(C)c1C -14.8%, O=C(Cn1cc2c(n1)CCCC2)Nc1cc(C(F)(F)F)ccc1Cl -0.808%, Cc1nnc(N2CCN(c3cccc(Cl)c3)CC2)c2c1nnn2Cc1ccc(F)cc1 1.98%, COc1ccc(C)cc1NC(=O)c1c(C(=O)Nc2cccc(C)c2C)sc2nc(C)cc(=O)n12 3.08%

outcome, inactive:
Cc1ccc(NC(=O)NCC2CCN(Cc3cccc(Cl)c3)CC2)cc1Cl, Cc1cccc(NC(=O)CCNS(=O)(=O)c2cccc3nonc23)c1, O=C(Nc1cc(Cl)ccc1Cl)C1(c2cccs2)CCOCC1, COc1ccc(Nc2ncc(C(=O)Nc3cc(Cl)c(OC)cc3OC)c3ccccc23)cc1, CCOC(=O)CNC(=O)c1cc2c(=O)n3cccc(C)c3nc2s1, CCOc1ccccc1NC(=O)CSc1ncc(S(=O)(=O)c2ccc(C(C)(C)C)cc2)c(=O)[nH]1, COCCNC(=O)c1ccc(-n2c(-c3ccccc3)cc3c2CCC(C)C3)cc1 (stereo unspecified), Cc1ccc(C(=O)NCc2ccc3c(c2)CCN3C(=O)c2ccc(C)cc2)cc1, COc1cc(NC(=O)c2nn(C)c3c2CS(=O)(=O)c2ccccc2-3)cc(OC)c1, COCCCNC(=O)c1c(-c2ccccc2)c(-c2ccccc2)nn(C)c1=O, COc1ccc(NC(=O)c2sc3nc4c(cc3c2N)CCCCCC4)c(OC)c1, COc1cc(N2C(=O)CSC23C(=O)N(Cc2cccc(F)c2)c2ccccc23)cc(OC)c1OC (stereo unspecified), Cc1ccc(-n2ncc(C(=O)NCc3ccccc3)c2C2CCN(C(=O)OC(C)(C)C)CC2)cc1, O=C(Nc1ccc(Cl)c(-c2nc3ccccc3o2)c1)c1ccc(-c2cccc([N+](=O)[O-])c2)o1, CCOc1ccc(NC(=O)Cn2cc(C(=O)c3ccc(OC)cc3)c(=O)c3cc4c(cc32)OCO4)cc1, COc1ccccc1CNC(=O)c1cnc(N(C)C)nc1, COC(=O)C(NC(=O)CCc1c(C)nc2cc(-c3cccc(F)c3)nn2c1C)C(C)C (stereo unspecified), COC(=O)c1ccccc1NC(=O)CCC(=O)N1CC(C)Sc2ccccc21 (stereo unspecified), CC1CCn2c(nc3cc(C(=O)NCCc4ccccc4)ccc32)C1 (stereo unspecified), CCC(Cc1ccccc1)NC(=O)CCS(=O)(=O)c1cc2c(cc1Cl)NC(=O)CO2 (stereo unspecified), COc1ccc2sc(N(Cc3cccnc3)C(=O)C3COc4ccccc4O3)nc2c1 (stereo unspecified), Cc1ccc(NC(=O)CN2C(=O)CSc3ccc(S(=O)(=O)N(C)C)cc32)c(C)c1, Cc1cc(C)cc(NC(=O)c2sc3nc4n(c(=O)c3c2C)N=C(c2ccc(F)cc2)CS4)c1, CCCn1cc(S(=O)(=O)c2ccccc2)c(=O)c2cc(F)c(N3CCCCCC3)cc21
